Reference: PubChem BioAssay AID504333 (National Center for Advancing Translational Sciences (NCATS), 2011)
Out of some 360,000 compounds screened, about 16,000 (4.4%) were called active. Inconclusive results, whose numbers are uncertain, are shown with a selection of clear calls. The call rests on the fitted dose curve; in most records, active means well fitted inhibition curve with a large enough effect; inconclusive means small, poorly fitted or top-dose-only effect; inactive means no such curve, though single readings can be large or run the other way. Potencies beside an inconclusive call are fits to weak or partial responses and may not hold up.
Further: nearly all actives have a fitted effect of over 60% in size.
On the % scale 0 is the no-effect control and ±100 the full control effect; potency means the concentration at half of the fitted maximal effect; tags describe the fitted curve by direction and shape.

What follows are molecules tested against Bromodomain adjacent to zinc finger domain protein 2B (Homo sapiens) (UniProt Q9UIF8) (assay: qHTS Assay for Inhibitors of BAZ2B). Settings: AlphaScreen BAZ2B-H3K14Ac peptide displacement; activity change, negative = inhibition: at 114 µM (top of the series).
UniProt Q9UIF8, sequence (Q9UIF8 whole entry, looked up, the tested form may be a part): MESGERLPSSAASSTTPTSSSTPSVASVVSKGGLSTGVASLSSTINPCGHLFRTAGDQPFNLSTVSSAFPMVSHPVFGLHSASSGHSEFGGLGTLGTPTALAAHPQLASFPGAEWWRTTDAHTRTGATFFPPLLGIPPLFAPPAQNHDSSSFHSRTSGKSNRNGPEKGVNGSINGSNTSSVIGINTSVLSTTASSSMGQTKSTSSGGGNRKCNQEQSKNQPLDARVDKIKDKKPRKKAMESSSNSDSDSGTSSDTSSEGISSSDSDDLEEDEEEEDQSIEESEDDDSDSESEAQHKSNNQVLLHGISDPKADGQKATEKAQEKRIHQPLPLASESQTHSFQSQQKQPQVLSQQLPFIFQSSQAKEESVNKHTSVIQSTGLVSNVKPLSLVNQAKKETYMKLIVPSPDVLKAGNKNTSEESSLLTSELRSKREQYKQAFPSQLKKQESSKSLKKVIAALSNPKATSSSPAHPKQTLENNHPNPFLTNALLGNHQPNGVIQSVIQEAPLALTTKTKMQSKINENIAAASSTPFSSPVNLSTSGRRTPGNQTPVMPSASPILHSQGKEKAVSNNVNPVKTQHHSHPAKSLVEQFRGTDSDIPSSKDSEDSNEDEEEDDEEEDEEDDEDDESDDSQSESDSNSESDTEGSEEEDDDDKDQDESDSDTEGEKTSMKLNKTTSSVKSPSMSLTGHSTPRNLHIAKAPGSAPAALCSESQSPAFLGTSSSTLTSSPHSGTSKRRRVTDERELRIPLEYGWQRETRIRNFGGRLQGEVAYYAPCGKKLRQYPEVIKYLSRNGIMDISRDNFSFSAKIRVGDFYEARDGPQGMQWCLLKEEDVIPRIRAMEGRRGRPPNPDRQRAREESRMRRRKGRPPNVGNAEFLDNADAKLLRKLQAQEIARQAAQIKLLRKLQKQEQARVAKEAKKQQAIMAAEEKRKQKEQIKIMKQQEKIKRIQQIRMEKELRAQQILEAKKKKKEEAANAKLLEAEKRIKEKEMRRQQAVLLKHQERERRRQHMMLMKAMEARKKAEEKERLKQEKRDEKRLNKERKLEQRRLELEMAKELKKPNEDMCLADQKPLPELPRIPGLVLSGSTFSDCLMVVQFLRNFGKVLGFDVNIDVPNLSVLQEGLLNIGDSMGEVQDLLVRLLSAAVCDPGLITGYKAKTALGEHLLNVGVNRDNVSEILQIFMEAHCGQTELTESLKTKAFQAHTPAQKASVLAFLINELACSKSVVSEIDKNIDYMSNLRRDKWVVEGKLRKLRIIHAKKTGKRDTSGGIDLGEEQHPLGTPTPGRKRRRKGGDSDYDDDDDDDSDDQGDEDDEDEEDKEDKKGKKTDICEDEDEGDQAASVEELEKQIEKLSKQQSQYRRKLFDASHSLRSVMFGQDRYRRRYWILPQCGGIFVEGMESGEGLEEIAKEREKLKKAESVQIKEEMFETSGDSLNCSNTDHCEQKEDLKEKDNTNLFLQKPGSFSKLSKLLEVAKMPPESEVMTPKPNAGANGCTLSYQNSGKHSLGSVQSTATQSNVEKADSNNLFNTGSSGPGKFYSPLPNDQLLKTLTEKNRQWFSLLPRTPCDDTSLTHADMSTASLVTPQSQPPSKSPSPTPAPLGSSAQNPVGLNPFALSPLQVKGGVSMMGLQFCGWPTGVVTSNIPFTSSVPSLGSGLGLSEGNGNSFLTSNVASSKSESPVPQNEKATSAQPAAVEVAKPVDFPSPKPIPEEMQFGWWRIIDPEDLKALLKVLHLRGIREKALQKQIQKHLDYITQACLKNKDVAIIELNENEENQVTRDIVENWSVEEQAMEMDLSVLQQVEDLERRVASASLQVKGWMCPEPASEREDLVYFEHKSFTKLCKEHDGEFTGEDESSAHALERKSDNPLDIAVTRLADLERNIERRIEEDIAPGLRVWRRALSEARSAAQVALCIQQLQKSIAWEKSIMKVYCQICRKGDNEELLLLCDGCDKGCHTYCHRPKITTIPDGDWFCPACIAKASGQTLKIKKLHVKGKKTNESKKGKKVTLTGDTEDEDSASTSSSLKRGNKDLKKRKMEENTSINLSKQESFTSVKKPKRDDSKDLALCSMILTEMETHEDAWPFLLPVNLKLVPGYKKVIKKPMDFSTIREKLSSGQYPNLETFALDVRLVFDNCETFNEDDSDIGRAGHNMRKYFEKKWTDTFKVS
How it was run: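 In this displacement format the biotinylated H3(5-23) peptide acetylated at Lys14 serves as ligand at 50 nM, with BAZ2B at 50 nM in PBS pH 7.4 containing 0.01% Tween-20. Donor and acceptor beads are 10 ug/mL final.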
For `CC(C)C1Nc2c(O)cc(Cl)c([N+](=O)[O-])c2C2C=CCC21` (stereo not given), the Potency was active: 25.1 µM. With `O=C(NC1CCCc2ccccc21)C1CCN(C(=O)c2sccc2-n2cccc2)CC1` (stereo not given) the Potency was inconclusive: 89.1 µM [inhibitor, single point]. For `Nc1ncccc1OCc1ccc(Br)cc1`, the Potency was inconclusive: 70.8 µM [inhibitor, single point]. For `CN(C)c1ccc(N/C(N)=N/c2nc(C(F)(F)F)cc(C(F)(F)F)n2)cc1`, the Potency was inconclusive: 44.7 µM [inhibitor, partial curve]. With `CC(C)Cc1nnc(NC(=O)CN2C(=O)c3ccccc3C2=O)s1` the “activity change, negative = inhibition” value was inactive: -31.4%. In the case of `Cc1ccc2nc(-c3ccc(NC(=O)Cc4ccccc4)cc3)sc2c1`, the “activity change, negative = inhibition” value is reported as inactive: 3.3%. With `Cc1ccc(CN2CCSc3ccc(C(=O)N4CCOCC4)cc32)cc1` the Potency was inconclusive: 17.8 µM [inhibitor, partial curve]. In the case of `COc1ccc(N2CCN(C(=O)CSc3nnc4c(C)cc5cc(C)ccc5n34)CC2)cc1`, the Potency is reported as inconclusive: 31.6 µM [inhibitor, full curve]. `CCOC(=O)C1=C(CN2CCN(c3ccc(Cl)cc3)CC2)NC(=O)NC1c1ccc(OC)cc1` (stereo not given) was tested, and the Potency was inconclusive: 17.8 µM [inhibitor, full curve]. In the case of `O=C1OC(c2ccccc2)=C/C1=C/N1CCCCC1`, the Potency is reported as active: 50.1 µM. `O=C(CSc1nccn(-c2cccc(F)c2)c1=O)Nc1ccc(Cl)cc1F` was tested, and the “activity change, negative = inhibition” value was inactive: -34.7%. In the case of `CC(C)OC(=O)CC(=O)c1sc2nc3c(cc2c1N)CN(C)CC3`, the Potency is reported as inconclusive: 89.1 µM [inhibitor, single point]. With `S=C(Nc1ccc2cn[nH]c2c1)Nc1ccc(Cl)cc1Cl` the Potency was inconclusive: 89.1 µM [inhibitor, single point]. For `COc1cccc(Nc2nnc(-c3cc4ccc(O)cc4oc3=O)s2)c1`, the “activity change, negative = inhibition” value was inactive: -32.3%. For `COc1cccc(C2CC(=O)Nc3c2c(=O)n(C)c2nc4ccccc4n32)c1OC` (stereo not given), the “activity change, negative = inhibition” value was inactive: -9%. For `CCOC(=O)N1CCC(NC(=O)c2cccc3c2C(=O)N(c2ccc(OC)cc2)C3)CC1`, the Potency was inconclusive: 79.4 µM [inhibitor, single point]. In the case of `NC(=O)CC(NC(=O)c1ccccc1)c1ccc(NCc2ccccn2)c([N+](=O)[O-])c1` (stereo not given), the Potency is reported as inconclusive: 89.1 µM [inhibitor, single point]. `CC(C)(C)c1csc(NC(=O)CS(=O)(=O)c2ccccc2)n1` was tested, and the “activity change, negative = inhibition” value was inactive: 0.572%. With `C=CCn1c(-c2ccc(OC)c(OC)c2)cs/c1=N\c1ccccn1` the Potency was inconclusive: 44.7 µM [inhibitor, partial curve]. With `CCCc1ccc(C2C3=C(CC(C)(C)CC3=O)NC3=C2C(=O)c2ccccc23)cc1` (stereo not given) the Potency was active: 25.1 µM.
